Test [1] has as its system HSkMC (human skeletal muscle cells). Description: cytotoxicity call (relative viability < 0.9). Conditions: 10 µM.
Test [2] concerns S. aureus RN4220. Description: growth inhibition call (relative growth <= 0.2). As to conditions: 50 µM.

The list shows a part of the results.

As for `O=C(O)c1ccc[nH]1`, in test [1], the cytotoxicity call is “inactive”. In addition, in test [2], the growth inhibition call was “inactive”.

In the case of `COc1ccc(S(=O)(=O)Nc2ccc3c(c2)C(=O)N([C@H](C)CO)C[C@@H](C)[C@@H](CN(C)CC2CC2)O3)cc1`, in test [1], the cytotoxicity call was “inactive”. For the same compound, in test [2], the growth inhibition call was “inactive”.

Turning to `COc1cccc(OC)c1C(=O)NN`, the cytotoxicity call in test [1] is “inactive”. The growth inhibition call in test [2] was “inactive”.

Consider `O=C(NCCCN1CCOCC1)C(=O)NC1CC1`, for which the cytotoxicity call in test [1] is “inactive”. Also, in test [2], the growth inhibition call was “inactive”.

As for `O=C(O)Cn1cccn1`, the cytotoxicity call in test [1] is “inactive”. The growth inhibition call in test [2] is “inactive”.

With `CO[C@H]1CN(C)C(=O)c2cc(NC(=O)Nc3ccccc3)ccc2OC[C@@H](C)N(C(=O)CN(C)C)C[C@H]1C`, the cytotoxicity call in test [1] is “inactive”. Besides, in test [2], the growth inhibition call was “inactive”.

For the compound `OC[C@@H](O)CN1CCN(c2ccccc2)CC1`, the cytotoxicity call in test [1] is “inactive”. The growth inhibition call in test [2] is “inactive”.

Take `CCCC[C@@H](C#N)c1ccccn1`: in test [1], the cytotoxicity call was “inactive”. Besides, in test [2], the growth inhibition call was “inactive”.

With `C[C@@H]1CN([C@H](C)CO)C(=O)Cc2cc(NC(=O)Nc3cccc4ccccc34)ccc2O[C@@H]1CN(C)C(=O)NC1CCCCC1`, the cytotoxicity call in test [1] was “inactive”. For the same compound, the growth inhibition call in test [2] is “inactive”.

With `C[C@@H]1CN([C@H](C)CO)C(=O)c2cc(NC(=O)c3ccncc3)ccc2O[C@H]1CN(C)Cc1ccc2c(c1)OCO2`, the cytotoxicity call in test [1] is “inactive”. Also, the growth inhibition call in test [2] was “inactive”.

As for `Nc1cc(=O)nc(N)[nH]1`, in test [1], the cytotoxicity call is “inactive”. Moreover, in test [2], the growth inhibition call is “inactive”.

For the compound `C[C@H]1CCCCO[C@@H](CN(C)Cc2ccc3c(c2)OCO3)[C@@H](C)CN([C@@H](C)CO)C(=O)c2cc(NC(=O)Nc3cccc4ccccc34)ccc2O1`, in test [1], the cytotoxicity call was “active”. The growth inhibition call in test [2] is “inactive”.

For the compound `C[C@H]1CCCCO[C@H](CN(C)Cc2ccc(C(=O)O)cc2)[C@@H](C)CN([C@@H](C)CO)C(=O)c2cc(NC(=O)Cc3ccccc3)ccc2O1`, the cytotoxicity call in test [1] was “inactive”. Further, the growth inhibition call in test [2] was “inactive”.

For the compound `O=C(O)CCc1nc2ccccc2[nH]1`, in test [1], the cytotoxicity call is “inactive”. Further, the growth inhibition call in test [2] is “inactive”.

Turning to `C[C@H](CO)N1C[C@H](C)[C@@H](CN(C)S(=O)(=O)c2ccc(Cl)cc2)Oc2ccc(NC(=O)C3CC3)cc2CC1=O`, the cytotoxicity call in test [1] was “inactive”. Moreover, the growth inhibition call in test [2] was “inactive”.

On to `Cc1cccc(S(=O)(=O)N2C[C@H](O)COC[C@@H]3O[C@H](CC(=O)NCCCN4CCOCC4)CC[C@H]32)c1`, for which the cytotoxicity call in test [1] was “inactive”. The growth inhibition call in test [2] was “inactive”.

Turning to `Cc1cnc(CNC(=O)c2c(=O)c3ccc(N4CCCN(C)CC4)nc3n3c2sc2ccccc23)cn1`, the cytotoxicity call in test [1] is “inactive”. Also, the growth inhibition call in test [2] is “inactive”.

On to `C[C@@H]1CN([C@@H](C)CO)C(=O)Cc2cc(NC(=O)Cn3cnnn3)ccc2O[C@H]1CN(C)S(=O)(=O)c1ccccc1`, for which the cytotoxicity call in test [1] was “inactive”. Also, the growth inhibition call in test [2] is “inactive”.

Consider `COC(=O)CNC(=O)c1ccc(F)cc1`, for which the cytotoxicity call in test [1] was “inactive”. For the same compound, in test [2], the growth inhibition call was “inactive”.

On to `COc1ccc(NC(=O)N[C@@H]2CC[C@H](CCNC(=O)CN3CCOCC3)O[C@@H]2CO)cc1`, for which, in test [1], the cytotoxicity call is “inactive”. Also, in test [2], the growth inhibition call was “inactive”.

As to `C[C@@H]1CCCCO[C@H](CN(C)S(=O)(=O)c2ccccc2)[C@@H](C)CN([C@@H](C)CO)C(=O)c2cc(NC(=O)c3ccccc3)ccc2O1`, in test [1], the cytotoxicity call was “inactive”. Moreover, in test [2], the growth inhibition call is “inactive”.

Turning to `C[C@@H]1CN([C@H](C)CO)C(=O)c2cc(-c3cccnc3)cnc2O[C@@H]1CN(C)C(=O)Nc1ccc2c(c1)OCO2`, the cytotoxicity call in test [1] is “inactive”. The growth inhibition call in test [2] was “inactive”.

Regarding `C[C@H](CO)N1C[C@H](C)[C@H](CN(C)Cc2ccc(-c3ccccc3)cc2)Oc2c(NS(=O)(=O)c3ccccc3)cccc2C1=O`, in test [1], the cytotoxicity call is “inactive”. In addition, the growth inhibition call in test [2] was “inactive”.

In the case of `C[C@H]1CN([C@@H](C)CO)C(=O)c2cc(NC(=O)Cc3ccccc3)ccc2O[C@@H]1CN(C)C(=O)Nc1ccc(C(F)(F)F)cc1`, the cytotoxicity call in test [1] was “inactive”. Besides, in test [2], the growth inhibition call is “inactive”.

Take `CC(C)NC(=O)N(C)C[C@@H]1OCCCC[C@@H](C)Oc2ccc(NC(=O)Nc3ccccc3)cc2C(=O)N([C@H](C)CO)C[C@@H]1C`: the cytotoxicity call in test [1] is “inactive”. Also, the growth inhibition call in test [2] is “inactive”.

Take `CCCC(=O)Nc1ccc2c(c1)OC[C@H](C)N(Cc1ccc(-c3ccccn3)cc1)C[C@@H](C)[C@H](OC)CN(C)C2=O`: in test [1], the cytotoxicity call was “inactive”. For the same compound, the growth inhibition call in test [2] is “inactive”.

In the case of `C[C@@H]1CN([C@H](C)CO)C(=O)c2cc(NC(=O)C3CCCCC3)ccc2O[C@@H](C)CCCCO[C@H]1CN(C)Cc1ccncc1`, the cytotoxicity call in test [1] was “inactive”. Further, the growth inhibition call in test [2] was “inactive”.

As to `COc1ccc([C@@H](NC(=O)C2CCN(CCOc3ccc(Cl)cc3Cl)CC2)c2ccccn2)cc1`, the cytotoxicity call in test [1] is “inactive”. The growth inhibition call in test [2] is “inactive”.

As to `C[C@@H]1CCCCO[C@@H](CN(C)C(=O)C2CCCCC2)[C@H](C)CN([C@@H](C)CO)C(=O)c2cc(NC(=O)NC3CCCCC3)ccc2O1`, the cytotoxicity call in test [1] was “inactive”. The growth inhibition call in test [2] was “inactive”.

On to `C[C@@H]1CN([C@@H](C)CO)C(=O)Cc2cc(NC(=O)Cc3cn(C)c4ccccc34)ccc2O[C@H]1CN(C)C(=O)Nc1ccc(C(F)(F)F)cc1`, for which, in test [1], the cytotoxicity call is “inactive”. In addition, the growth inhibition call in test [2] is “inactive”.

`Cc1noc(C)c1NC(=O)Nc1ccc2c(c1)C(=O)N([C@@H](C)CO)C[C@H](C)[C@@H](CN(C)S(=O)(=O)c1cccs1)OCCCC[C@H](C)O2`: the cytotoxicity call in test [1] is “inactive”. Further, the growth inhibition call in test [2] was “inactive”.

As to `C[C@H](CO)N1C[C@H](C)[C@H](CN(C)S(=O)(=O)c2cn(C)cn2)Oc2ccc(NS(=O)(=O)c3ccccc3)cc2C1=O`, the cytotoxicity call in test [1] was “inactive”. The growth inhibition call in test [2] was “inactive”.

For the origin of these results see the antibiotic and cytotoxicity screens of Wong et al. (2023).
